In all, about 50,000 compounds went through this assay and about 800 (1.6%) showed an effect of 50% or more. This is one part of the list.
The compounds below were run against Bcl-2-like protein 10 (Homo sapiens) (UniProt Q9HD36) (assay: TR3 peptide-Bcl-B binding displacers, biochemical primary FP assay, phenotype converters (AID 1240;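 further: 0% = Bcl-B with tracer peptide and DMSO and 100% = tracer peptide lacking Bcl-B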)). Conditions: GST-Bcl-B / FITC-TR3 peptide fluorescence polarization; stronger effect = higher value; compound at 3.75 mg/L.
Sequence of UniProt Q9HD36 (Q9HD36 whole entry, looked up): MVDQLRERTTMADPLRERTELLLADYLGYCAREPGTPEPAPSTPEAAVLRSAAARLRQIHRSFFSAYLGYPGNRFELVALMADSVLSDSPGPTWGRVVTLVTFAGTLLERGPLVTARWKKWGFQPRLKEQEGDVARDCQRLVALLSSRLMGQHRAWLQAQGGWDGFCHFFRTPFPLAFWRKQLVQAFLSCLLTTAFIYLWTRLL

Point of comparison: `COc1ccc(-n2nc3cc(C)c(NC(=O)c4ccc5c(c4)OCCO5)cc3n2)cc1`, displacement 28.3%. Against it:
- CCOC(=O)/C=C(\C)N1N=C(c2ccccc2)CC1c1ccccc1[N+](=O)[O-] (stereo not given) — lower, 12%
- Cc1ccc(/C=C2\CN(C)C/C(=C\c3ccc(C)cc3)C2=O)cc1 — lower, -4.1%
- COc1ccc(OC)c(C=Nc2ccc(I)cc2)c1 — lower, 3.6%
- CC(=O)C1=C(O)C(=O)N(CCN(C)C)C1c1ccc(Br)cc1 (stereo not given) — lower, -3.6%
- CC1(C)CC(=O)C2=C(C1)Nc1ccccc1N(C(=O)c1ccc(Cl)cc1)C2c1ccco1 (stereo not given) — lower, 0.1%
- Cc1ccccc1OCC(=O)NNC(=O)C(F)(F)F — lower, 8.6%
- Cc1cccc(OCC(=O)N2CCc3ccccc3C2)c1 — lower, 6.8%
- COc1ccc(CCNC(=O)Nc2ccc(Cl)c(Cl)c2)cc1 — lower, -6.1%
- CC(=O)c1ccc(NC(=O)Cc2ccc(Br)cc2)cc1 — lower, -2.5%
- COc1ccc(C(=O)Nc2ccccc2C(=O)NCCC(=O)NCc2ccco2)cc1 — lower, 11.4%
- COc1ccc(CCN=C(Nc2ccccc2)SC2CC(=O)N(c3ccc(F)cc3)C2=O)cc1 (stereo not given) — lower, -7%
- CC1=C(C(=O)Nc2cccc(C)c2)C(c2ccc3c4c(cccc24)CC3)NC(=S)N1 (stereo not given) — lower, 8.1%
- Cc1ccc(OCC(=O)N/N=C\c2ccc(-c3ccc([N+](=O)[O-])cc3)o2)cc1 — higher, 116%
- Nc1cccc(NC(=O)CCC(=O)O)n1 — lower, 4.3%
- COC(=O)C1C(O)=C(C(C)=NC(C)C)C(=O)CC1(C)C (stereo not given) — lower, -15.9%
- COC(=O)c1ccc(-c2ccc(/C=C3/SC(NC(C)=O)=NC3=O)o2)cc1 — lower, 10.7%
- CC(=O)Oc1ccc(C2C(C(=O)OC(C)C)=C(C)NC3=C2C(=O)CC(C)(C)C3)cc1 (stereo not given) — lower, 11.6%
- COc1cc(/C=N/NC(=O)c2ccccn2)cc(OC)c1O — lower, -1.2%
- Cc1cc(C)nc(Sc2ccc3nnc(C(F)(F)F)n3n2)n1 — lower, 8.1%
- Cc1cccc(OCC(=O)Nc2cccc(C(=O)NCC(C)C)c2)c1 — lower, 11.8%
- Cc1c(C(N)=O)sc(N)c1C(=O)OC(C)C — lower, -2.1%
- O=C(NCCCO)C(=O)Nc1cccc(C(F)(F)F)c1 — lower, 3.4%
- CCc1ccc(NC(=O)C(=O)NCc2ccc3c(c2)OCO3)cc1 — lower, 10.5%
- CC1(C)CC(=O)CC(=Nc2ccc(F)cc2)C1 — lower, -4.9%
- Cc1ccccc1OCCOc1ccc(Cl)cc1/C=N/n1cnnc1 — lower, -2.5%
- CN(C)c1ccc(-c2nc3cc(NC(=O)c4cccc(Br)c4)ccc3o2)cc1 — higher, 62.5%
- CC(=O)c1cccc(NC2C=CS(=O)(=O)C2)c1 (stereo not given) — lower, 16.4%
- Cc1cc(Cl)ccc1OCC(=O)Nc1ccc(N2CCOCC2)cc1 — lower, 17.4%
- Cc1cc(NC(=O)c2cc(-c3ccc(C(C)C)cc3)nc3ccccc23)no1 — lower, 5.5%

Reference: PubChem BioAssay AID1240 (Sanford-Burnham Center for Chemical Genomics, 2008)
